# Measurements reported in the supplement of paper PMC12632987.
# Whole data set: some 2,300 sequences, median “median log2 fold change of GCK-ALFA target abundance (FLAG IP / Myc IP barcode read proportion)” near 0.095, cut for the lowest 2% near -0.47. This is one part of the list.
# B1: LC3A_3_1834 (protein)
# chain: LEEEVAALLEELRAAGHSEEALAAVRELFEALREKGYEEALRTAIELLRELKDLPSELTLELAREALRLVEEEDLSEEELTERIKELARLYRNEGEIEEL
# B2: LC3A_3_1592 (protein)
# chain: MEELVKEALERLKEAGLSEEVLKAAKELLEALAKKGYENAIKTTTELLLEAKDLPAEVLVDTLKEILHIVETKDLNEEEIIKEIEREFRVARLESEIIEL
# B3: LC3A_3_1461 (protein)
# chain: AEELIKEAKAILKAQGATPETIKAAEALLKALAAKGYEEAMKTVVELLKEMKGVPSEILLATFEELLAYVETEDATEEEVIAKIKEEFAAAKSEAEIIEL
# B4: LC3A_3_1664 (protein)
# chain: MDELIAATLAWLAAQGRSQETLDAVREAMTALKEKGYDKSLETFAELLRELAHLSDELLLELAKEVLELVKTSDLNEEEMTKEIKEIARTIRNEAEIEEL
# B5: LC3A_3_1486 (protein)
# chain: MEELLAEAREVLEARGASPEQIEAVLADVRAILELGYEETVRTFIELLKELPDLSPEKIVAAAGTIRDRVEEEDLTEEEAVEYAKRVMNDVAEIEELDEE
# B6: LC3A_37_1344 (protein)
# chain: MEKWVIVVVANSEEAYEEAKKEAEKEAEAIGAELITKLLPEDATEAELIDAAEELAEKRKEEIRKKTGKEVKSSSIIEVDRDEETGDIVVTKYVLLEILE
# B7: LC3A_17_534 (protein)
# chain: REELERELRETLEELERLVEKLEEYDPEAAEEFRRRLEEARRLLEEGRLREAAELLERTAEELADRIDSLEWPDEIEKSVLEMEANGVALRAIGLLLRLE
# B8: LC3A_17_562 (protein)
# chain: SEELREEVERLVEELEKAVKKTSKLDPSAKEELEAKLKEIKELIEKGDLRGALKAAEELADKIADIAEKNEDKHPLEASLLEMEANGLALEATRLLLKLE
# Biological target: MAP1LC3A, Q9H492
# Test: median log2 fold change of GCK-ALFA target abundance (FLAG IP / Myc IP barcode read proportion) (log2 ratio); each designed protein is fused to an ALFA-tag nanobody in HEK293 cells to bring the named protein to FLAG-tagged glucokinase (GCK); Myc marks an untargeted standard; higher = target protein stabilised (more abundant)
# Conditions: target protein: 3xFLAG-MCP-GCK-ALFA reporter; HEK293 landing pad (RPLP)
# Method in brief: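 Binders fused to an ALFA nanobody were recombined as a library into HEK293 landing-pad cells, which were induced with 2 μg mL^−1 doxycycline and then transfected to express a FLAG-tagged target and a Myc-tagged standard. After 48 h, circular RNA barcodes recovered by anti-FLAG and anti-Myc immunoprecipitation of lysates were reverse transcribed, amplified and sequenced. Each binder's target abundance is the median log2 ratio of FLAG to Myc barcode read proportions, from barcodes present at ≥10^−7 in both replicates, binders carrying ≥3 barcodes per replicate, a 10^−6 pseudocount and pooled replicates.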
row,Binder,median log2 fold change
1,B1,0.236
2,B2,0.2
3,B3,0.292
4,B4,0.303
5,B5,0.164
6,B6,-0.00297
7,B7,0.1
8,B8,0.05
